Measurements from article PMC4336329 (PLoS ONE, 2015).
Among all 310,000 compounds or so, about 14,000 (4.5%) showed an effect of 50% or more. The effect is printed as a negative number. This is one part of the list.

Molecular target: human ether-à-go-go-related gene (hERG) potassium channel (human, UniProt Q12809)
Assay: primary screen, population patch clamp on CHO cells stably expressing hERG
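Note: peak tail current of the secondary pulse compared with the same well before compound.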

Sequence of human ether-à-go-go-related gene (hERG) potassium channel (Q12809 whole entry, looked up): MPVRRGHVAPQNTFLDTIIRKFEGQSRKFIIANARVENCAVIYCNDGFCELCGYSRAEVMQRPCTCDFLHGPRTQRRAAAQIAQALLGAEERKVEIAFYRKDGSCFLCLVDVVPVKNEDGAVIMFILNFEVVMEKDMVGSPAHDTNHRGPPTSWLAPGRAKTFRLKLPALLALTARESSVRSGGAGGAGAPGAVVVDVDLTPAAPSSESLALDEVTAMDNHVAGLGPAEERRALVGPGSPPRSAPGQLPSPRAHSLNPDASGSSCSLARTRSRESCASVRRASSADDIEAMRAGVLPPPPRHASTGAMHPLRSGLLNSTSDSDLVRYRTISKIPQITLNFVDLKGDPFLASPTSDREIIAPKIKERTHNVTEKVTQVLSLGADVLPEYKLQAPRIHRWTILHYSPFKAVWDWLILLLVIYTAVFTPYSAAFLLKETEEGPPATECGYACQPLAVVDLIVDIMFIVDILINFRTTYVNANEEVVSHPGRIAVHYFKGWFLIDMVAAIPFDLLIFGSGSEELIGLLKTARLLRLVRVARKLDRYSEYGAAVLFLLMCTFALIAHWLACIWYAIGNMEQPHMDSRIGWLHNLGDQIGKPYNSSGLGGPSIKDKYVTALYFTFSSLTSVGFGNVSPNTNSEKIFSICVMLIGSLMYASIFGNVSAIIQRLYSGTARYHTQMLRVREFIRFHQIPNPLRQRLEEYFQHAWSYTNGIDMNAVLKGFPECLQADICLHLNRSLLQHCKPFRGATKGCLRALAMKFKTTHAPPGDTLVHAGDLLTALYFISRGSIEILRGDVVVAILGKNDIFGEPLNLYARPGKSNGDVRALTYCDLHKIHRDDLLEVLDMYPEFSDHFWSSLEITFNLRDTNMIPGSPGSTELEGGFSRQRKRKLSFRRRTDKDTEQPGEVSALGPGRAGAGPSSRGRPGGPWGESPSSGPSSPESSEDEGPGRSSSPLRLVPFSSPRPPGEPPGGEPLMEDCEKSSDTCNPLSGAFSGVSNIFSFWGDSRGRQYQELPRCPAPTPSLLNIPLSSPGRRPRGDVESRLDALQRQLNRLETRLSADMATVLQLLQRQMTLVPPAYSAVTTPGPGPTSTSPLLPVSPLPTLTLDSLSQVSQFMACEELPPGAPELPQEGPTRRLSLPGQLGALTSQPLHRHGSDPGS

Structure (SMILES) | hERG current change (%, negative = inhibition) at 10uM [%]
O=C(Nc1cc(Cl)cc(Cl)c1)C(c1ccccc1)N1CCCCC1 (centres unmarked) | -0.326
NC(=O)Nc1ccc(Oc2ncc(C(F)(F)F)cc2Cl)cc1 | 15.2
CC(C)c1nc2ccccc2c2nnc(SCC(=O)NCc3ccco3)n12 | -9.3
CCCN(CCC)CC(O)COc1ccc2c(c1)OCO2.Cl (centres unmarked) | -28.8
CCCCCn1c(CN2CCN(C)CC2)nc2c1c(=O)n(C)c(=O)n2C | -33.1
O=C(Nc1cccc2nsnc12)c1ccc(-c2cccc(Cl)c2)o1 | 10.4
CCN1CCN(c2ccc(S(=O)(=O)N3CCCCC3)cc2NC(=O)/C=C/c2ccc(OC(F)F)cc2)CC1 | -50.2
COc1c(C)cccc1C(=O)NCCCNC(=O)c1ccc(C)nc1 | 8.53
O=C(Nc1nnc(-c2ccco2)o1)c1ccc(N2C(=O)CCC2=O)cc1 | 9.62
O=C(Nc1cc(Cl)cc(Cl)c1)C1C2C=CC3(O2)C1C(=O)N(CCCN1CCOCC1)C3C(=O)NC1CCCCC1 (centres unmarked) | -10.1
COC(=O)c1sc(S(=O)(=O)Nc2ccc(C)cc2)c(C(=O)OC)c1C | -0.0322
CN(C)CC/C=C1\c2ccccc2CSc2ccccc21.Cl | -22.6
Nc1nc(-c2cccc(F)c2)cs1 | 6.09
COc1ccc(S(=O)(=O)Cc2ccc(C(=O)NCc3cccnc3)o2)cc1 | 2.58
O=C(O)/C=C/c1cn(Cc2ccccc2)nc1-c1cccs1 | 19.7
CCc1ccc(NC(=O)CCNC(=O)Cn2cnc3ccccc3c2=O)cc1 | 8.41
CCOCC(=O)N1CCCC(C(=O)OCC)C1 (centres unmarked) | 1.56
COc1ccc(-n2c(Cc3cccn3C)nnc2SCC(=O)N2CCCc3ccccc32)cc1 | -13.9
COC(=O)N[C@@H]1C[C@H]2[C@@H]3CC[C@H]4C[C@@H](OC)CC[C@]4(C)[C@H]3CC[C@@]12C | 24.1
COc1ccc(-c2c3c(=O)n(C)c(=O)n(C)c3cn2Cc2cccnc2)cc1 | 4.55
Cc1ccc(-c2csc(N/N=C/C=C/c3ccccc3)n2)cc1 | -4.21
COc1ccc(NC(=O)c2onc(C)c2Cl)cc1OC | -3.2

Structure (SMILES) | hERG current change (%, negative = inhibition) at 10uM [%]
CC(=O)N1CCc2cc(S(=O)(=O)NCCC(=O)NC3CCCCCC3)ccc21 | -23
O=C(Cn1c(=O)n(-c2ccccc2)c(=O)c2sccc21)NCc1ccccc1 | 28.7
O=C(CSc1ccc2nnc(-c3ccncc3)n2n1)Nc1ccccc1F | -7.78
O=C(O)c1cccc(-n2c(O)c(C=C3N=c4ccccc4=N3)sc2=S)c1 | 2.4
COc1cccc(C(=O)NCC(=O)N/N=C/c2cccnc2)c1 | 9.04
COc1ccc(NC(=O)COC(=O)C2CC(=O)N(c3ccc(OC(C)C)cc3)C2)cc1 (centres unmarked) | 9.25
CCCCCCSc1cc(-c2nc3ccc(Cl)cn3c2NCCCC)ccc1OC.O=C(O)C(F)(F)F | 10.4
Cc1cc(OCC(=O)NCCN2CCOCC2)cc(C)c1Br | -7.05
CCCCC(=O)c1c(C)cc(C)[nH]c1=O | 6.27
COc1ccc(Nc2nc(OC)nc(OC)n2)cc1 | -0.803
CCCCOc1ccc(CNn2c(C)nc3ccccc3c2=O)cc1 | 14.6
CCOC(=O)c1c(NC(=O)C(Sc2ccccc2)c2ccccc2)sc(C(N)=O)c1C (centres unmarked) | -3.17
CCCc1ccc(OCc2nc(-c3ccc(NC(=O)c4ccco4)cc3)no2)cc1 | 3.17
COc1ccc(CN2C(=NC(=O)c3ccccc3)SC3CS(=O)(=O)CC32)cc1OC (centres unmarked) | 5.14
CCCCCC(=O)NNC(=S)NC(C)=O | 28.2
CS(=O)(=O)N1CCN=C1SCc1cccc(F)c1 | 19.2
O=C(CSc1nc2ccc([N+](=O)[O-])cc2[nH]1)NC1CCCCC1 | -3.6
CCOc1ccc(NC(=O)CN(C)C(=O)c2ccc3[nH]c4c(c3c2)CC(C)CC4)cc1OCC (centres unmarked) | 16.7
C=CCc1c(C)nc(C)nc1N/N=C/c1ccc([N+](=O)[O-])cc1.Cl | -56.3
Cc1sc(NC(=S)NC(=O)c2ccccc2)c(C#N)c1C | 0.195
CC(=O)c1c([O-])n(-c2cccc(Cl)c2)c(=O)[nH]c1=O.C[NH+](C)C | 3.98
CCOC(=O)C1=C(C)N(CCCC(=O)O)C(=O)NC1c1ccccc1Cl (centres unmarked) | -0.145
